Source: publication PMC10668032
This is one part of the list. At the low end of the ranking the order means little.

target: SIX1-Q177R homeodomain (UniProt Q15475); assay: universal protein binding microarray; details: Universal all-10-mer PBM (8x60K, AMADID 030236), 300 nM GST-tagged protein, Alexa Fluor 488 anti-GST; buffer, salt, pH and temperature not stated; high values mean tight binding; most listed sequences are background and not binding sites; double strand, one strand shown

Sequence	binding signal [E-score]
TAACAAGA	-0.232
TGCTAGCA	0.0725
CATACCTC	-0.0402
CACAAAAA	-0.00359
CGGAATCA	-0.0125
TATTGTAA	-0.0985
AACGGTCT	-0.0786
CCTGGTGA	0.114
CAGACAAC	0.0599
AGTTACAC	0.449
ACCGTGCG	0.142
AGGAGTGG	0.11
GGCTCTAC	-0.135
AAACCCCC	0.24
AAGTATGC	-0.0659
TCCTCCGA	0.0575
ACGTATGG	-0.207
CTCTCAAC	0.121
TAAATCTA	-0.163
GCACGAAA	0.091
TCCCCGCA	0.0113
ACGAAAAC	-0.0287
GACTGGAA	-0.186
GAAGCTCA	-0.335
GAAAGAAA	-0.221

Sequence	binding signal [E-score]
GCCAAAGA	-0.214
GCCATTCC	-0.0898
ACCCCAGC	0.235
AGGCGCCA	-0.197
TAAATTAA	-0.186
AATTAAAC	-0.0327
CTGCTACA	0.146
ACGGTAGT	-0.0511
AGGAATGG	-0.0759
ACGATGGA	0.0544
TGTGAACA	0.327
CACCCTTA	0.263
GTACATAC	0.141
CCTTGACA	0.253
ATACCGAC	0.173
TCGAGCAA	-0.165
CTGGAGAC	-0.067
CCATCTCA	-0.0451
GCAGCTGC	-0.289
GTATATTA	0.134
GGCGAAGA	-0.000985
ATGGCCCC	-0.0495
ATCCAGGG	-0.0101
ATCAGAAG	-0.15
GACTCAAC	-0.0127

Sequence	binding signal [E-score]
AGGGCGTG	0.169
CCCCTTCG	0.0545
CGCCTCAC	-0.112
CGGGTCAC	0.246
ACAGTAAC	-0.131
AATGAGAC	-0.239
ACGGCCTA	0.00957
ATGGGTTC	-0.0503
CAAGTAGG	0.0998
GAAACTGC	-0.122
CTCGCAGA	-0.0285
ACTATGTG	0.17
ACACTCTC	0.391
AGCTCGAG	-0.0947
TAGGTGAA	-0.0826
GATCTGGC	-0.0505
CAGTACTC	-0.13
ATCTTACA	0.262
CCCGAGAA	0.0289
ATTACGAC	0.037
CTCCGGGA	0.0182
AAGTTTGT	-0.174
CACACCCA	0.382
AGTGGGGC	0.0484
CTCAACTC	-0.19

Sequence	binding signal [E-score]
ATCGGTAA	-0.0123
GAGTGGCA	-0.166
TCGCCAAA	-0.284
ATCCCGGG	0.209
ACGAGAGT	0.0232
AACCAACT	0.00094
GTGCTTGA	0.186
GGGGGCCA	-0.115
CTCTTAAA	-0.275
ATCACAAC	-0.0409
ATACATCC	0.122
AATATTAG	0.133
AGTTTTGA	0.0278
AGTCACCA	0.0485
TAGTACGA	-0.0995
CGGTAACA	0.085
ACGCGACC	0.149
ATAAAAAC	-0.0998
AGTATCAA	0.126
CTAATGAA	-0.0223
GGGTTAAC	0.103
AAAACACT	0.301
GTGTAAGA	0.411
AAAAGTGC	-0.203
AACGCAGT	-0.201

Sequence	binding signal [E-score]
TCCGTAGA	-0.174
GAAGGCAC	-0.0147
CGCAGTTA	-0.232
AGCAGCAT	-0.263
CAGGTGCG	0.131
TCGATTAA	0.141
AGACACGC	0.346
GCGAATAC	-0.0152
CAGTCTCG	-0.307
CATACTTC	-0.105
TGGTGAAA	-0.0929
ATGTCAAT	-0.237
TGCCGTAA	-0.18
GGATTGAA	-0.0689
CCGTCTCC	0.13
CCCCTGTC	0.0769
CGCCCGTC	0.111
GATGGCGA	-0.164
CGCAACGC	-0.16
GGATTCAA	0.0574
AATTATGC	-0.287
AGAGACCA	-0.242
CACTATCG	0.104
TACCCATA	0.125
CGATTTAC	0.0095

Sequence	binding signal [E-score]
TGAAGACA	0.106
AATCATTG	-0.164
CTTCACAC	0.278
TCCTTACA	0.222
AAGCGTCC	0.127
AATACACG	0.379
CCACGCAG	0.0436
GCGGAGGA	-0.33
ACAGGTGG	0.0387
AGTCAGAT	0.0522
GGGAGCTA	0.0723
AAGAATCG	-0.0806
CACTGCTA	0.138
GGACCAAC	-0.0864
GCCTTCCC	-0.169
CGTGTCTC	0.338
CGCTACGA	-0.0912
CCCACGAC	0.148
CACTGAAG	0.0466
CTCTACAG	-0.0391
AACATTTA	-0.187
CCTGACGA	0.0033
ATTAGCAA	-0.222
CCCCAGCC	0.0442
AAGAATCT	-0.306

Sequence	binding signal [E-score]
ACCCTCCT	0.11
GAAATACC	0.0213
CGGTTCCA	-0.15
GTGTTATA	0.432
AAGTTATT	-0.0997
GATCGCGC	0.098
GCTTTAAA	-0.181
ATGCATTC	-0.209
CTTTACTA	-0.106
GAGGGGAA	-0.000465
CCGGGACC	0.00585
ACCCGTAT	0.131
CAGGGGGC	-0.0732
CTCATGCC	-0.224
GGCACCTA	0.0451
AAGACCGG	-0.0295
TACACGGA	0.402
TACGTTAA	-0.106
ACATCAGT	-0.0564
ATGATCGC	-0.0795
CCGAAAGC	0.0382
AGCCGATA	-0.244
